# Among all 52,000 compounds or so, about 1,700 (3.3%) were called active. No stated cut-off is given here; in the data, active means survival mostly below about 52% (no sharp cut-off); inactive means mostly above about 56%. The list shows a part of the results.
# Test system: Wild type
# Assay: growth inhibition of S. aureus wild type versus tarO mutant, primary screen, teichoic acid synthesis inhibitors, RN4220, OD600 (AID 463173)
# Conditions: S. aureus RN4220 wild type/DeltatarO growth, OD600, 18 h, stronger effect = lower value, screened at 18.75 µg/mL (by protocol)
row,SMILES,survival
1,Cc1cc(C)c2c(-n3cccc3)c(C(=O)NCCCN3CCCCC3)sc2n1,inactive: 86%
2,COc1ccc(NC(=O)Cn2cc(C#N)c3ccccc32)cc1,inactive: 115%
3,COc1ccc(NC(=O)c2ccc3c(c2)c(C)c(C)n3Cc2ccc(F)cc2)cc1,inactive: 82%
4,O=C(CCc1ccccc1)NCCc1csc(-c2cccc(F)c2)n1,inactive: 68%
5,Cc1ccccc1OCCSc1nc(C)c(Cc2ccccc2)c(=O)[nH]1,inactive: 107%
6,O=C(C1CCCN(S(=O)(=O)c2ccccc2)C1)N1CCCc2ccccc21 (centres undefined),inactive: 103%
7,COc1cccc(CNC(=O)C(C)n2ccc3cc(S(=O)(=O)N4CCCCCC4)ccc32)c1 (centres undefined),inactive: 99%
8,COc1ccc(-c2nn(C)c3sc(C(=O)N4CCN(c5ccccc5F)CC4)cc23)cc1OC,inactive: 81%
9,CC(=O)Nc1cc(C)ccc1C,inactive: 109%
10,Cc1ccc(-c2[nH]c3ccccc3c2SCCNC(=O)c2ccc(S(=O)(=O)N3CCOCC3)cc2)cc1,inactive: 81%
11,COc1ccccc1-c1cc(NC(=O)COc2ccccc2Cl)n(-c2ccccc2)n1,inactive: 73%
12,Cc1cccc2c1-c1sc(C(=O)NCCc3ccc(Cl)cc3)cc1CO2,inactive: 101%
13,CC1CCN(C(=O)c2cnn(-c3ccc(Cl)cc3)c2C2CCN(C(=O)OC(C)(C)C)CC2)CC1,inactive: 71%
14,COc1cccc(CNC(=O)CN2C(=O)CSc3ccc(S(=O)(=O)N(C)C)cc32)c1,inactive: 88%
15,Cc1ccc(-c2nc3sccn3c2Nc2ccccc2C)cc1,inactive: 49%
16,CN(C)C(=O)CCSc1nc2cc(Cl)ccc2o1,inactive: 116%
17,Cn1c(SCC(=O)Nc2ccccc2)nc2ccccc2c1=O,inactive: 105%
18,Cc1c(C(=O)OC2CCCC2)[nH]c2c1C(=O)CC(c1ccc(C(C)(C)C)cc1)C2 (centres undefined),inactive: 89%
19,COc1nc(-c2ccccc2)ccc1-c1noc(C(C)C)n1,inactive: 88%
20,CC(C)(C)C1CCc2c(sc(NC(=O)c3cccc(Cl)c3)c2C(N)=O)C1 (centres undefined),inactive: 75%
21,COc1ccc(NC(=O)CSc2oc(-c3ccc(C)cc3)nc2S(=O)(=O)c2ccc(C)cc2)c(OC)c1,inactive: 80%
22,CCC(=O)Oc1c(Sc2ccc(Cl)cc2)c(C)nn1C(C)(C)C,inactive: 60%
23,CCN(CCCNC(=O)c1cc2cc3cc(OC)ccc3nc2s1)c1cccc(C)c1,inactive: 73%

row,SMILES,survival
1,Cc1cc2c(cc3c(SCc4ccc(Cl)cc4)nnc(C)n32)o1,inactive: 82%
2,CSCCC(NS(=O)(=O)c1ccc2c(c1)oc(=O)n2C)C(=O)N1CCN(c2cc(Cl)ccc2C)CC1 (centres undefined),inactive: 59%
3,Cc1cccc(N2CCN(C(=O)c3nn(C)c4c3CSc3ccccc3-4)CC2C)c1 (centres undefined),inactive: 87%
4,CCN1CCN(Cc2c(O)ccc3oc(C)c(C(=O)Nc4ccc(OC)c(Cl)c4)c23)CC1,inactive: 88%
5,CCOC(=O)c1ccccc1NC(=O)CSc1nc2ncccc2o1,inactive: 71%
6,CCCC1(C(=O)OC)NC(c2ccc(OC)c(OC)c2)C2C(=O)N(c3ccc4c(c3)OCO4)C(=O)C21 (centres undefined),inactive: 100%
7,COc1ccc2c(c1)c1c(c(=O)n(-c3cccc(C)c3)c(=O)n1CC(=O)Nc1c(C)cc(C)cc1C)n2C,inactive: 139%
8,Cc1cc(C)cc(NC(=O)CN2C(=O)COc3ccc(S(=O)(=O)Nc4ccccc4)cc32)c1,inactive: 98%
9,Cc1cn(C)c(CC(=O)NCc2ccc(F)cc2)c1C(=O)O,inactive: 78%
10,CCc1cccc(NC(=O)CNS(=O)(=O)c2ccc3nc(C)sc3c2)c1,inactive: 72%
11,Cc1ccc(CSC2=Nc3ccccc3C3=NC(CC(=O)NC4CCCCC4)C(=O)N23)c(C)c1 (centres undefined),inactive: 76%
12,CCC(C)NC(=O)c1cn(CC)c2ccc(S(=O)(=O)N3CCCCC3)cc2c1=O (centres undefined),inactive: 79%
13,Cc1ccc2nc(-c3ccncc3)c(Nc3ccccc3C)n2c1,inactive: 101%
14,CC1=C(c2ccc(C)cc2)S(=O)(=O)N=C1N1CCN(c2ccccc2)CC1,inactive: 85%
15,CN(Cc1ccccc1)S(=O)(=O)c1ccc(F)c(C(=O)Nc2ccccc2C(F)(F)F)c1,active: -6%
16,Cc1ccc(C(NC(=O)Cc2cccs2)C(=O)Nc2ccc(C(C)C)cc2)cc1 (centres undefined),inactive: 82%
17,Cc1cccc(-c2nc3c4ccccc4nc(NCc4ccccc4Cl)n3n2)c1,inactive: 163%
18,Cc1cc(Nc2cccc(C(F)(F)F)c2)ncn1,inactive: 80%
19,CCn1cc(C(=O)NCc2ccccc2)c(=O)c2cc(S(=O)(=O)N3CCCCC3)ccc21,inactive: 84%
20,Cc1ccc(NS(=O)(=O)c2ccc3c4c(cccc24)C(=O)N3)c(C)c1,inactive: 84%
21,O=C1OCc2c1[nH]c(=O)[nH]c2=O,inactive: 102%
22,Nc1n[nH]c2nc(C(F)(F)F)cc(=O)n12,inactive: 109%
23,CNS(=O)(=O)c1cn(CC(=O)N2CCN(c3ccc(OC)cc3)CC2)cc1S(=O)(=O)NC,inactive: 69%

row,SMILES,survival
1,O=C(COc1ccccc1)N(Cc1cccnc1)c1nc2ccc(Cl)cc2s1,inactive: 82%
2,O=C(Nc1ccc(N2CCC(N3CCCCC3)CC2)c(C(=O)O)c1)c1ccccc1,inactive: 70%
3,CC(C)NC(=O)c1ccc(Cn2c(=O)c3cccn3c3cccnc32)cc1,inactive: 84%
4,COc1ccc(CC(=O)NC2CC(=O)N(c3ccc4c(c3)OCCO4)C2)cc1 (centres undefined),inactive: 136%
5,CCOCCCn1c(=N)c(S(=O)(=O)c2ccc(C)cc2)cc2c(=O)n3ccccc3nc21,inactive: 125%
6,CCOC(=O)c1c(NC(=O)C(C)Sc2cn(CCNC(=O)c3ccc(OC)c(OC)c3)c3ccccc23)sc2c1CCC2 (centres undefined),inactive: 151%
7,Nc1c(C(=O)Nc2cccc(Cl)c2)sc2nc3c(cc12)CN(Cc1ccccc1)CC3,inactive: 65%
8,O=C(CSc1nncn2c1cc1sccc12)Nc1ccccc1C(F)(F)F,inactive: 111%
9,O=C(NCCC1=CCCCC1)c1ccc2c(c1)N(Cc1ccc(F)cc1)C(=O)c1ccccc1S2(=O)=O,inactive: 145%
10,CCn1c(=Nc2ccc(N3CCOCC3)cc2)ccc2ccccc21,inactive: 100%
11,COc1ccc2nc3sc(C(=O)Nc4cc(Cl)c(OC)cc4OC)cc3cc2c1,inactive: 87%
12,Cc1c(NC(=O)c2cc(-c3cccc(Cl)c3)on2)c(=O)n(-c2ccccc2)n1C,inactive: 78%
13,CCOCCCn1c(=N)c(C(=O)NCc2ccco2)cc2c(=O)n3ccccc3nc21,inactive: 74%
14,COCCCNc1nc2c(-c3ccccc3)nnn2c2ccccc12,inactive: 85%
15,CCOC(=O)c1c(C)oc2nc(C)nc(NCc3ccc(C)cc3)c12,inactive: 71%
16,CCN1CCN(Cc2c(O)ccc3c(=O)c(Oc4ccccc4Cl)c(C(F)(F)F)oc23)CC1,inactive: 74%
17,CC(NC(=O)c1ccc(-c2ccccc2)cc1)C(=O)O (centres undefined),inactive: 92%
18,Cc1ccccc1C(=O)NCC(c1cccnc1)N1CCc2ccccc21 (centres undefined),inactive: 81%
19,Cc1cccc(N2CCN(S(=O)(=O)c3ccc4oc(=O)c5ncn(C)c5c4c3)CC2C)c1 (centres undefined),inactive: 73%
20,COc1ccc(N(C(=O)COc2c(C)cccc2C)S(=O)(=O)c2ccc(Cl)cc2)cc1,inactive: 65%
21,COC(=O)c1ccccc1NC(=O)c1cc2nc(-c3ccccc3)cc(-c3ccccc3)n2n1,inactive: 69%
22,CCOC(=O)c1c(C)sc(-c2c(-c3ccc4c(c3)OCCO4)[nH]c3c2c(=O)[nH]c(=O)n3C)c1O,inactive: 106%
23,COc1ccc(NC(=O)C2(c3cccs3)CCOCC2)cc1Cl,inactive: 90%

row,SMILES,survival
1,Cc1ccc(-c2nnc(Nc3ccc(O)cc3)c3ccccc23)cc1S(=O)(=O)NCc1nc2ccccc2[nH]1,inactive: 92%
2,O=c1oc2ccccc2n1CN1CCCCC1,inactive: 105%
3,COc1cccc(N2CCN(C(=O)c3c(C)oc4ncnc(N5CCCCC5)c34)CC2)c1,inactive: 133%
4,CC(C)CN(CCCNC(=O)CN1C(=O)COc2ccc(S(=O)(=O)N3CCCCCC3)cc21)CC(C)C,inactive: 124%
5,COc1cc(NC(=O)CSc2nc(C)c(C(=O)Nc3ccccc3)c(-c3ccc(OC)c(OC)c3)c2C#N)c(OC)cc1Cl,inactive: 75%
6,COc1ccc(N2CC3=C(C2=O)C(c2ccc(Br)cc2)NC(=O)N3C)cc1 (centres undefined),inactive: 156%
7,Cc1cc(Nc2sc(C(=O)c3ccc(F)cc3)c(N)c2C(=O)Nc2ccc(F)cc2)ccc1Cl,inactive: 85%
8,Cc1ccc(Cl)cc1N1CCN(CCCNc2ncnc3onc(-c4ccc(F)cc4)c23)CC1,inactive: 87%
9,Cc1ccoc1C(=O)Nc1ccccc1C(=O)O,inactive: 102%
10,COc1cccc(-n2c(=O)c3sc4ccccc4c3n(CC(=O)Nc3ccc(F)cc3F)c2=O)c1,inactive: 78%
11,O=S(=O)(NC1CC1)c1cccs1,inactive: 111%
12,CN1C(=O)/C(=C/C=C2\SCCN2C)OC1=S,inactive: 110%
13,COc1ccc2nc(NC(=O)c3nc(SCc4ccccc4F)ncc3Cl)sc2c1,inactive: 90%
14,Cc1cc(C)n(-c2nc3cc(Cl)ccc3nc2Nc2ccc(CC(=O)O)cc2)n1,inactive: 131%
15,CCCCn1c(NCc2cc(Br)ccc2O)nc2ccccc21,inactive: 69%
16,NC(=O)Cc1nnc(-c2ccccc2)c(-c2ccccc2)n1,inactive: 111%
17,COc1ccccc1CNC(=O)C1CCN(S(=O)(=O)c2ccc3c(ccn3C)c2)CC1,inactive: 131%
18,CCNC(=O)C1CCN(c2nnc(C)c3c(C)n(-c4ccc(OC)cc4)nc23)CC1,inactive: 99%
19,Cc1cccc(NC(c2ccccc2C)c2ccc3ccc(C)nc3c2O)n1 (centres undefined),active: -3%
20,COC(=O)c1c(-c2cccs2)csc1NC(=O)c1ccc(OC)c(OC)c1,inactive: 75%
